The antibiotic and cytotoxicity screens of Wong et al. (2023)
The list shows a part of the results.

Tested on: HepG2
Assay: cytotoxicity call (relative viability < 0.9)
Details: 10 µM

SMILES	cytotoxicity call
C[C@H](CO)N1C[C@H](C)[C@H](CN(C)C(=O)Nc2cccc3ccccc23)Oc2ccc(NC(=O)Nc3ccc(F)cc3)cc2CC1=O	inactive
COc1ccc(S(=O)(=O)Nc2cccc3c2O[C@@H](CN(C)S(=O)(=O)c2cccs2)[C@H](C)CN([C@H](C)CO)C3=O)cc1	inactive
C#CCn1c(=O)c2c(OC)ccnc2n(C)c1=O	inactive
C[C@@H]1CN([C@@H](C)CO)C(=O)c2cc(NC(=O)Nc3ccc(C(F)(F)F)cc3)ccc2O[C@H]1CN(C)Cc1ccncc1	active
CS(=O)(=O)Nc1ccc2c(c1)[C@H]1C[C@H](CC(=O)NCc3ccc(-c4ccccc4)cc3)O[C@@H](CO)[C@H]1O2	inactive
C[C@@H]1CN([C@H](C)CO)C(=O)c2cc(NC(=O)c3ccccc3)ccc2O[C@@H](C)CCCCO[C@H]1CN(C)S(=O)(=O)c1cccs1	active
C[C@H](CO)N1C[C@H](C)[C@@H](CN(C)C(=O)Cc2cccnc2)Oc2ncc(C#CCc3ccccc3)cc2C1=O	inactive
Cc1ccccc1-c1ccc2c(c1)O[C@@H](CN(C)C(=O)Nc1ccc(C(F)(F)F)cc1)[C@@H](C)CN([C@H](C)CO)S2(=O)=O	inactive
C[C@H](CO)N1C[C@H](C)[C@H](CN(C)Cc2ccc(Oc3ccccc3)cc2)Oc2ccc(NS(=O)(=O)c3ccc(Cl)cc3)cc2C1=O	inactive
Cc1noc(C)c1S(=O)(=O)Nc1ccc2c(c1)CC(=O)N([C@@H](C)CO)C[C@@H](C)[C@H](CN(C)S(=O)(=O)c1ccc(Cl)cc1)O2	active
COC(=O)C1=CO[C@@H](O[C@@H]2O[C@H](CO)[C@@H](O)[C@H](O)[C@H]2O)[C@H]2[C@@H]1[C@H](O)C[C@]2(C)O	inactive
C[C@H](CO)N1C[C@H](C)[C@H](CN(C)Cc2cncnc2)Oc2cc(C#CC3CCCC3)ccc2S1(=O)=O	inactive
CN(C)CC(=O)N[C@H]1CC[C@@H](CC(=O)O)O[C@H]1CO	inactive
CCS(=O)(=O)Nc1ccc2c(c1)C(=O)N(C)C[C@@H](OC)[C@H](C)CN(Cc1nccs1)[C@H](C)CO2	inactive
NC(=O)c1ccc(CN2CCOCC2)cc1	inactive
C[C@@H]1CN([C@@H](C)CO)C(=O)c2cc(NS(=O)(=O)c3cn(C)cn3)ccc2O[C@H]1CN(C)S(=O)(=O)c1ccc(F)cc1	inactive
C[C@@H]1CN([C@@H](C)CO)C(=O)c2cc(NC(=O)Nc3ccc(C(F)(F)F)cc3)ccc2O[C@@H](C)CCCCO[C@H]1CN(C)Cc1ccc(C(=O)O)cc1	inactive
C[C@H]1CN([C@@H](C)CO)C(=O)Cc2cc(NC(=O)c3ccncc3)ccc2O[C@H]1CN(C)C(=O)Nc1ccc2c(c1)OCO2	inactive
C[C@@H]1CN([C@@H](C)CO)C(=O)CCCn2cc(nn2)CO[C@H]1CN(C)C(=O)Nc1ccccc1C(F)(F)F	inactive
COc1ccc(S(=O)(=O)N(C)C[C@H]2Oc3c(NC(=O)Nc4c(C)noc4C)cccc3C(=O)N([C@H](C)CO)C[C@@H]2C)cc1	inactive
O=c1nc[nH]c2c1ncn2[C@@H]1O[C@H](CO)[C@@H](O)[C@H]1O	inactive
CN1CCN(C(=O)[C@H]2[C@H](CO)[C@H]3Cn4c(ccc(C5=CCCC5)c4=O)[C@@H]2N3S(C)(=O)=O)CC1	inactive
O=c1[nH]cc(S(=O)(=O)N2CCN(c3ccccc3F)CC2)c(=O)[nH]1	inactive
CNC[C@@H]1Oc2ccc(NS(=O)(=O)c3cn(C)cn3)cc2C(=O)N([C@@H](C)CO)C[C@@H]1C	inactive
C[C@@H]1CN([C@H](C)CO)C(=O)Cc2cc(NC(=O)C3CCCCC3)ccc2O[C@@H]1CN(C)Cc1ccc(C(=O)Nc2ccccc2N)cc1	active
Cc1noc(C)c1S(=O)(=O)Nc1ccc2c(c1)C(=O)N([C@H](C)CO)C[C@@H](C)[C@@H](CN(C)S(=O)(=O)c1c(C)noc1C)O2	inactive
Cn1ccc(C(=O)N2CCC3(CCOC[C@@H]3NS(C)(=O)=O)CC2)n1	inactive
C[C@H](CO)N1C[C@H](C)[C@@H](CN(C)Cc2ccc(C(=O)Nc3ccccc3N)cc2)Oc2c(NS(=O)(=O)c3cn(C)cn3)cccc2C1=O	inactive
COc1ccc(NC(=O)Nc2ccc3c(c2)C(=O)N([C@H](C)CO)C[C@H](C)[C@@H](CN(C)S(=O)(=O)c2ccc(Cl)cc2)OCCCC[C@H](C)O3)cc1	inactive
COc1cccc(NC(=O)N[C@@H]2C=C[C@H](CC(=O)N3CCN(C)CC3)O[C@@H]2CO)c1	inactive
